# From PubChem BioAssay AID488969 (Vanderbilt High Throughput Screening Facility, 2010)
# Whole data set: some 110,000 compounds, median “z-score” near -0.1, cut for the highest 2% near 2. Some of the results follow.
# Biological target: Metabotropic glutamate receptor 8 (Rattus norvegicus) (UniProt P70579)
# Test: rat mGluR8 modulators via GIRK flux, primary screen, cell-based, thallium flux, HTS (AID 488969)
# Settings: HEK293 rat mGluR8, GIRK (G protein-gated inwardly rectifying potassium channel) thallium flux, FluoZin2; at 10 µM; stronger effect = higher value; submaximal glutamate (EC20) added with thallium
# UniProt P70579, sequence (P70579 whole entry, looked up): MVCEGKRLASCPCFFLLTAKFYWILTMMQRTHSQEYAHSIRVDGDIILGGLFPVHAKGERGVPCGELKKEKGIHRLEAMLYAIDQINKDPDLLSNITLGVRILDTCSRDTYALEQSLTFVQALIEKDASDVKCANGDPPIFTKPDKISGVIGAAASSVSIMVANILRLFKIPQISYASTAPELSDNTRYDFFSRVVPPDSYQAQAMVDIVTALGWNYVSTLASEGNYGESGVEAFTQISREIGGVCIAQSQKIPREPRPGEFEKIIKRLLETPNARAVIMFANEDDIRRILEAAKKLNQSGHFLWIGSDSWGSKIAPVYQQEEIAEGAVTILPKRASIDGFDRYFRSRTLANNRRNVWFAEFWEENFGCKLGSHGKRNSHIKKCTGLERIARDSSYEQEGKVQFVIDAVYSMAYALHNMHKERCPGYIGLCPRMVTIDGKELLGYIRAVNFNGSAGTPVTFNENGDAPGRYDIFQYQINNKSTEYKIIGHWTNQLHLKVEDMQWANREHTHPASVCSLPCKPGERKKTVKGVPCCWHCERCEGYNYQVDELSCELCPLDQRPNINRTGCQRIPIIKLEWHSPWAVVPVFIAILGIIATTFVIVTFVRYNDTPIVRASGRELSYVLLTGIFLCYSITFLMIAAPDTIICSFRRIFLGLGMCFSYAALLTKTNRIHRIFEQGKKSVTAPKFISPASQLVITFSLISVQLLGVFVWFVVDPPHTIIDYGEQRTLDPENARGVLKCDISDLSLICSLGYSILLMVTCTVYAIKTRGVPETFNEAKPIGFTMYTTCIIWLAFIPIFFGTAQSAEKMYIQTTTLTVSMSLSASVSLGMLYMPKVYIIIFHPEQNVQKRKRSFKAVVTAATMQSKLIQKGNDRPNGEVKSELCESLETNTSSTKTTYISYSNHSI
row,Structure (SMILES),z-score
1,O=C(c1cc(Cl)ccc1Cl)N1CCN(c2ccccn2)CC1,0.601
2,Cc1ccc(C(=O)N/C(=C\c2cccs2)C(=O)N2CCCCCC2)cc1,-0.422
3,CC(C)CC(=O)NC(=S)Nc1ccccc1C(=O)Nc1ccccc1,-0.037
4,COc1ccc(-c2oc(/N=C/N3CCOCC3)c(C#N)c2-c2ccc(OC)cc2)cc1,0.0409
5,O=C(CSc1nc2ccccc2s1)NCCOc1ccccc1,0.279
6,CCC(C)(c1nnnn1-c1c(C)cccc1C)N(N=O)c1cccc(C(F)(F)F)c1 (stereo not given),0.17
7,Cc1cc(=O)[nH]c(Cc2ccc(OC(C)C)cc2)n1,-0.0361
8,CCc1cc(=O)oc2c(C)c(OCC(=O)N3CCCc4ccccc43)ccc12,-1.19
9,CCc1nc(N)c(C#N)c(-c2ccncc2)c1C,0.0413
10,COC(=O)C(Cc1ccc(O)cc1)NC(=O)C(C)Oc1ccccc1 (stereo not given),-0.425
11,CCC1(CC)C(=O)C(C)(C)C(=O)OC1c1ccccn1 (stereo not given),0.852
12,CCCCc1nn(-c2cc(Cl)ccc2OC)c2c1C(=O)CCC2,-1.66
13,FC(F)(F)c1cc(-c2cccs2)nc2cc(-c3ccccc3)nn12,-0.089
14,CC(=O)N1CCC(C(=O)Nc2nc(-c3ccccc3)ns2)CC1,-0.0333
15,CO/N=C(/CS(=O)(=O)c1ccc(Br)cc1)c1ccc(OC)cc1,-0.272
16,COc1ccc(N2CCN(C(=O)c3c(-c4ccccc4)noc3C)CC2)cc1,-0.306
17,COc1ccc(-c2[nH]n(-c3ccc([N+](=O)[O-])cc3)c(=O)c2C=NCc2ccncc2)cc1,-0.276
18,Cc1ccc2nc(NC(=O)CSc3ncnc4c3oc3ccccc34)sc2c1,0.762
19,COc1ccc2[nH]c(=O)c(CN(C(=O)c3ccccn3)C3CCCCC3)cc2c1,-0.107
20,Cc1csc(SCC(=O)c2c(N)n(CC(C)C)c(=O)n(C)c2=O)n1,0.102
21,Cc1ccc(C(Sc2ccccc2)C(Cn2cncn2)C(=O)c2ccccc2)cc1 (stereo not given),-0.241
22,O=[N+]([O-])c1ccc(NC(=S)N2CCN(c3ccccc3)CC2)cc1,0.107
23,CS(=O)(=O)N(CC(=O)Nc1cc(Cl)ccc1Cl)c1ccccc1Cl,-0.755
24,COc1ccc(S(=O)(=O)Cc2ccc(C(=O)NCc3ccc(F)cc3)o2)cc1,-0.0534
25,CC(=O)Nn1cnc2c(c1=O)C1(CCCC1)Cc1ccccc1-2,0.316
26,C[C@@H](C(=O)Nc1nc(-c2ccccn2)cs1)N1C(=O)C2CCCCC2C1=O (stereo not given in full),0.256
27,CCOC(=O)c1cccc(NC(=O)C2CCN(S(=O)(=O)c3cnc[nH]3)CC2)c1,-0.0462
28,COc1ccc(OC)c(-c2nc3c(C)n[nH]c(=O)c3[nH]2)c1,0.548

row,Structure (SMILES),z-score
1,Cc1cccc(N2CCN(CC(=O)Nc3nccs3)CC2)c1C,0.000429
2,COc1ccc(S(=O)(=O)NC2CCCCC2)c(C)c1C,-1.03
3,O=C(Nc1cccc(NC(=O)c2cccs2)c1)c1ccco1,-0.313
4,O=C(CCn1nc(-c2ccccc2)ccc1=O)NCCCN1CCCCCC1,0.133
5,O=C(NC(NC(=S)Nc1ccccc1Cl)C(Cl)(Cl)Cl)c1cccc(Cl)c1 (stereo not given),-0.0238
6,O=C(c1ccc(-n2cnnn2)cc1)N1CCCCC1,0.294
7,COc1ccc(NC(=S)NNC(=O)Cn2nc([N+](=O)[O-])cc2C)cc1,-1.44
8,Nc1ccc(-c2cc(-c3ccc(N)cc3)nc(-c3ccccc3)n2)cc1,-0.15
9,Cc1ccc(S(=O)(=O)Nc2ccccc2CNc2ncc(Br)cc2Br)cc1,0.00788
10,CC1CCN(S(=O)(=O)c2ccc(NC(=O)CSc3nnnn3C)cc2)CC1,1.64
11,COc1ccc(C2CC(=O)C(C=NCCN3CCN(C(C)=O)CC3)=C(O)C2)cc1 (stereo not given),-0.0865
12,CN(C)C(CNS(=O)(=O)c1ccc(Br)cc1)c1cccnc1 (stereo not given),1.24
13,O=C(Nc1nc(-c2ccco2)c(-c2ccco2)s1)C1CCC1,-0.47
14,COC(=O)c1ccc(N2C(=O)c3ccc(OC)c(OC)c3C2=O)cc1,-0.174
15,CCOc1ccc(C2C(C#N)=C(C)NC3=C2C(=O)c2ccccc23)cc1 (stereo not given),0.179
16,O=C(CNc1ccc2ccccc2c1)N/N=C/c1ccc([N+](=O)[O-])o1,-0.0765
17,O=C(CSc1ncn[nH]1)NCc1ccccc1,0.318
18,CCOc1ccc(S(=O)(=O)Nc2cc(Cl)ccc2O)cc1,-0.191
19,CCCCOC(=O)C[N+](C)(C)CCOC1CC2CCC1(C)C2(C)C (stereo not given),-0.137
20,O=C(COc1ccccc1F)NC1CCN(Cc2ccccc2)CC1,0.587
21,COc1ccc(-n2nnnc2-c2cnc(N3CCCC3)nc2C(F)(F)F)cc1,-0.837
22,COc1ccc(-c2nnc(SCC(=O)c3ccc[nH]3)o2)cc1,0.399
23,Oc1ccc(N2CCN(C(c3cccs3)c3nnnn3CCc3ccccc3)CC2)cc1 (stereo not given),-0.146
24,Cc1onc(-c2ccccc2)c1C(=O)Nc1ccc(OC(C)C)cc1,0.23
25,Cc1[nH]c2ccccc2c1C1(O)C(=O)N(C(C)C)c2ccccc21 (stereo not given),0.246
26,Cc1cccc(N2CCN(C(=O)c3cccn4c(=O)c5c(C)c(C)sc5nc34)CC2)c1C,0.451
27,COc1ccccc1CNCc1cccs1,0.411
